Experimental findings from the supplement of paper PMC7125110 are described below.

± gives the standard error. Variants at the floor of the assay are shown more often than the library holds them.

B1: glmS ribozyme (parent)
chain: AUAAAAGCGCCAGAACUACAGAAAUGUAGUUGACGAGGAGGAGGUUUAUCGAAUUUUCGGCGGAUGCCUCCAAA

Variants of B1 are the subject of one data set. In words: self-cleavage kobs at 160 uM GlcN6P; higher = faster cleavage; RNA array. Particulars: with glucosamine-6-phosphate. Put shortly: (§1)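 Tracking of barcoded ribozyme variants used a hybridised Cy3 probe at 37 °C, after in situ transcription by E. coli RNA polymerase on sequenced MiSeq chips. The flowed solution held 40 μM to 10 mM glucosamine-6-phosphate in HEPES/KCl/Mg(OAc)2 buffer, and imaging ran over ~14 h. kobs was taken from exponential decay fits of normalised per-tile medians, and kcat and KM from weighted Michaelis–Menten fits.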
On to U54C G59A, for which the “self-cleavage kobs at 160 uM GlcN6P” value is below 1e-05 s⁻¹. On to A39C C58U, for which the “self-cleavage kobs at 160 uM GlcN6P” value is below 1e-05 s⁻¹. In the case of C34A A39U C58A G63U, the “self-cleavage kobs at 160 uM GlcN6P” value is below 1e-05 s⁻¹. For the variant G35A G63A, the “self-cleavage kobs at 160 uM GlcN6P” value is below 1e-05 s⁻¹.

Consider A36C A53U, for which the “self-cleavage kobs at 160 uM GlcN6P” value is below 1e-05 s⁻¹.

For A42G C50G A64G, the “self-cleavage kobs at 160 uM GlcN6P” value was below 1e-05 s⁻¹.

Consider C34U G37U U56G, for which the “self-cleavage kobs at 160 uM GlcN6P” value was below 1e-05 s⁻¹.

On to C34G U46A, for which the “self-cleavage kobs at 160 uM GlcN6P” value is below 1e-05 s⁻¹.

Turning to G41A A64G, the “self-cleavage kobs at 160 uM GlcN6P” value is 7.21e-05 ± 2e-05 s⁻¹. Same read-out and setting: the figure for G35U U56A C61A is below 1e-05 s⁻¹; for C34G G38A it is below 1e-05 s⁻¹. Regarding U56A G63C, the “self-cleavage kobs at 160 uM GlcN6P” value was below 1e-05 s⁻¹. For the variant G37A A42C U46C, the “self-cleavage kobs at 160 uM GlcN6P” value was below 1e-05 s⁻¹. Same read-out and setting: the figure for A39U G63A is below 1e-05 s⁻¹; for G38C C61U C70A it is below 1e-05 s⁻¹; for G35U U49A C68U it is below 1e-05 s⁻¹. The same measure, in the same setting: the figure for A42C C50A C68U C70G is below 1e-05 s⁻¹.

The variants in the next data set derive from B1. In words: self-cleavage kobs at 2500 uM GlcN6P; higher = faster cleavage; RNA array. Conditions: with glucosamine-6-phosphate. Put shortly:
as §1
In the case of C8A C10U C11A U45C U65G, the “self-cleavage kobs at 2500 uM GlcN6P” value is below 1e-05 s⁻¹.

For the variant G7A A14G C16A, the “self-cleavage kobs at 2500 uM GlcN6P” value was below 1e-05 s⁻¹. C8G A15U G44C U54C: the “self-cleavage kobs at 2500 uM GlcN6P” value is below 1e-05 s⁻¹. For G7C G9C C61G G62U, the “self-cleavage kobs at 2500 uM GlcN6P” value was below 1e-05 s⁻¹. On the same count and under the same terms, the same measure for G9U A12C G38U A48C C68A: below 1e-05 s⁻¹; for A12G A14C G44A U49C A53G G59A: below 1e-05 s⁻¹; for G9C G29A A36C A53U: below 1e-05 s⁻¹. For C8G A14U G26U C58U, the “self-cleavage kobs at 2500 uM GlcN6P” value is below 1e-05 s⁻¹.

Consider C11A G32U G44C A48U G51A, for which the “self-cleavage kobs at 2500 uM GlcN6P” value was below 1e-05 s⁻¹.

Consider C11G G29A C67U, for which the “self-cleavage kobs at 2500 uM GlcN6P” value was below 1e-05 s⁻¹. Turning to A6U C8U G38A A48U, the “self-cleavage kobs at 2500 uM GlcN6P” value was below 1e-05 s⁻¹.

As to G7U A12C A36U A39C G51A, the “self-cleavage kobs at 2500 uM GlcN6P” value was below 1e-05 s⁻¹. Consider A6U U55C C61A, for which the “self-cleavage kobs at 2500 uM GlcN6P” value is below 1e-05 s⁻¹. On to A6C C8A U31G G38C, for which the “self-cleavage kobs at 2500 uM GlcN6P” value was below 1e-05 s⁻¹. Same read-out and setting: the same measure for G7A G9U A33C U47G: below 1e-05 s⁻¹; for A6U G37A U49C U54A: below 1e-05 s⁻¹. C11G U56A G62A: the “self-cleavage kobs at 2500 uM GlcN6P” value is below 1e-05 s⁻¹. The same measure, in the same setting: the same measure for G9U A14G U45A C67A: below 1e-05 s⁻¹; for C8G A12G U31C G62A: below 1e-05 s⁻¹; for A36C A53U: below 1e-05 s⁻¹. Regarding G9C U55C C70G, the “self-cleavage kobs at 2500 uM GlcN6P” value is below 1e-05 s⁻¹.

For the variant G9A A12U A48C, the “self-cleavage kobs at 2500 uM GlcN6P” value was below 1e-05 s⁻¹. Still for that read-out and setting: the figure for C11A G38C C61U U69C is below 1e-05 s⁻¹; for A12C C16G C61U it is below 1e-05 s⁻¹.

For the variant G9A G40U G63A A64U, the “self-cleavage kobs at 2500 uM GlcN6P” value was below 1e-05 s⁻¹.

As to A6G U31C A36G A42U, the “self-cleavage kobs at 2500 uM GlcN6P” value was below 1e-05 s⁻¹.

Consider C11G A15U U55G, for which the “self-cleavage kobs at 2500 uM GlcN6P” value is below 1e-05 s⁻¹. The same measure, in the same setting: the figure for A12G G37A G41U G43A is below 1e-05 s⁻¹; for A6C A12G G37A it is below 1e-05 s⁻¹. For the variant A12G A15U C61G, the “self-cleavage kobs at 2500 uM GlcN6P” value was below 1e-05 s⁻¹. Same read-out and setting: the same measure for A6U A42C U47A U49G U56C G63A: below 1e-05 s⁻¹.

On to G7U U30C G40C A53G U56A, for which the “self-cleavage kobs at 2500 uM GlcN6P” value was below 1e-05 s⁻¹.

Turning to A6G U31C A33C, the “self-cleavage kobs at 2500 uM GlcN6P” value is below 1e-05 s⁻¹. Regarding C10A A14G C34G A42G U47G G62U C68A, the “self-cleavage kobs at 2500 uM GlcN6P” value was below 1e-05 s⁻¹. For C34U G37U U56G, the “self-cleavage kobs at 2500 uM GlcN6P” value was below 1e-05 s⁻¹. The same measure, in the same setting: the same measure for C34G U46A: below 1e-05 s⁻¹; for G41A A64G: 0.00071 ± 0.00016 s⁻¹. C11U G51A C68A C71A: the “self-cleavage kobs at 2500 uM GlcN6P” value is below 1e-05 s⁻¹. For C11G A14C G38A A42U, the “self-cleavage kobs at 2500 uM GlcN6P” value was below 1e-05 s⁻¹.

For the variant C11G G63A C67U, the “self-cleavage kobs at 2500 uM GlcN6P” value was below 1e-05 s⁻¹. As for C11A G38C G62A, the “self-cleavage kobs at 2500 uM GlcN6P” value was below 1e-05 s⁻¹. As to G7U C34A A36U A53G U54C, the “self-cleavage kobs at 2500 uM GlcN6P” value is below 1e-05 s⁻¹. Turning to C8U U30A G35A G40U C50G, the “self-cleavage kobs at 2500 uM GlcN6P” value is below 1e-05 s⁻¹. As for G9C A48U A53U G59C C71G, the “self-cleavage kobs at 2500 uM GlcN6P” value was below 1e-05 s⁻¹. On to C11A G37A G38C, for which the “self-cleavage kobs at 2500 uM GlcN6P” value is below 1e-05 s⁻¹. Regarding A6U G9C U65G, the “self-cleavage kobs at 2500 uM GlcN6P” value is below 1e-05 s⁻¹. Take C11A A33C A53C A64C: the “self-cleavage kobs at 2500 uM GlcN6P” value is below 1e-05 s⁻¹. On the same count and under the same terms, the same measure for U56A G63C: below 1e-05 s⁻¹.

For G37A A42C U46C, the “self-cleavage kobs at 2500 uM GlcN6P” value was below 1e-05 s⁻¹.

For the variant A39U G63A, the “self-cleavage kobs at 2500 uM GlcN6P” value was below 1e-05 s⁻¹.

For C10A A48C A64U, the “self-cleavage kobs at 2500 uM GlcN6P” value was below 1e-05 s⁻¹. On to A6C G7U U31A G37U, for which the “self-cleavage kobs at 2500 uM GlcN6P” value was below 1e-05 s⁻¹.

Take C11U G38A C67U C71A: the “self-cleavage kobs at 2500 uM GlcN6P” value was below 1e-05 s⁻¹. With G7U G51C A53C, the “self-cleavage kobs at 2500 uM GlcN6P” value was below 1e-05 s⁻¹.

For A12C A52C, the “self-cleavage kobs at 2500 uM GlcN6P” value was below 1e-05 s⁻¹.

Regarding C8A G29A G38U, the “self-cleavage kobs at 2500 uM GlcN6P” value is below 1e-05 s⁻¹. For the variant G38C C61U C70A, the “self-cleavage kobs at 2500 uM GlcN6P” value is below 1e-05 s⁻¹.

Take G9U G13C U31G U56C G66A: the “self-cleavage kobs at 2500 uM GlcN6P” value is below 1e-05 s⁻¹. G7C C10U A33U U46C: the “self-cleavage kobs at 2500 uM GlcN6P” value is below 1e-05 s⁻¹. C11A G41A A64G: the “self-cleavage kobs at 2500 uM GlcN6P” value is below 1e-05 s⁻¹. Regarding A6C A14C G60A G63A, the “self-cleavage kobs at 2500 uM GlcN6P” value was below 1e-05 s⁻¹. For G7C A33U G51U G66U, the “self-cleavage kobs at 2500 uM GlcN6P” value was below 1e-05 s⁻¹. With G9C G37C A42U G43C C50U C67G C71A, the “self-cleavage kobs at 2500 uM GlcN6P” value is below 1e-05 s⁻¹.

As for A6G C10A A12C U54G U57G, the “self-cleavage kobs at 2500 uM GlcN6P” value was below 1e-05 s⁻¹. The same measure, in the same setting: the same measure for G7A G32U A52C C61G C67U: below 1e-05 s⁻¹; for C8G G29A U56C G62A: below 1e-05 s⁻¹. G9A C11G G32A G59U: the “self-cleavage kobs at 2500 uM GlcN6P” value is below 1e-05 s⁻¹.

In another data set the parent is B1. The data set can be described thus: self-cleavage kobs at 10000 uM GlcN6P; higher = faster cleavage; RNA array. Conditions: with glucosamine-6-phosphate. Put shortly:
as §1
A36C A53U: the “self-cleavage kobs at 10000 uM GlcN6P” value is below 1e-05 s⁻¹. Consider C34G U46A, for which the “self-cleavage kobs at 10000 uM GlcN6P” value was below 1e-05 s⁻¹. Take G41A A64G: the “self-cleavage kobs at 10000 uM GlcN6P” value was found to be 0.00128 ± 0.00023 s⁻¹. For C8U U30A G35A G40U C50G, the “self-cleavage kobs at 10000 uM GlcN6P” value was below 1e-05 s⁻¹. Same read-out and setting: the figure for G35U U56A C61A is below 1e-05 s⁻¹; for C34G G38A it is below 1e-05 s⁻¹. In the case of C11A A33C A53C A64C, the “self-cleavage kobs at 10000 uM GlcN6P” value is below 1e-05 s⁻¹.
